Hit rate of the full screen: of about 390,000 compounds, about 2,200 (0.56%) were called active. This list was built around the results that the source calls inconclusive (neither active nor inactive); the mix of calls is not that of the screen. The call rests on the fitted dose curve; in most records, active means well fitted inhibition curve with a large enough effect; inconclusive means small, poorly fitted or top-dose-only effect; inactive means no such curve, though single readings can be large or run the other way. Potencies beside an inconclusive call are fits to weak or partial responses and may not hold up.
target: Chromobox protein homolog 1 (Homo sapiens) (UniProt P83916); assay: HTS for Inhibitors of HP1-beta Chromodomain Interactions with Methylated Histone Tails; conditions: AlphaScreen HP1-beta / biotin-H3K9me3 peptide binding; series mostly up to 114 µM; activity change, negative = inhibition: at the top concentration; further: nearly all actives have a fitted effect of over 70% in size
Method in brief: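 Compound inhibition of the preformed complex between 50 nM HP1-beta and 50 nM biotinylated H3K9me3 peptide was read by AlphaScreen. Buffer was PBS pH 7.4 with 0.01% Tween-20. Incubations ran 30 min at room temperature, with 10 ug/mL donor/acceptor beads.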
Potency means the concentration at half of the fitted maximal effect; tags describe the fitted curve by direction and shape.

UniProt P83916, sequence (P83916 whole entry, looked up): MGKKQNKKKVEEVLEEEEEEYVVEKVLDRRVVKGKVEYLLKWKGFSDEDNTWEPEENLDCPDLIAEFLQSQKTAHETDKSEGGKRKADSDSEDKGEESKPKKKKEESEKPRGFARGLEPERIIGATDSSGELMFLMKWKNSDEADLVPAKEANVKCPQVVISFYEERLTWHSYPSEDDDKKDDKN

Compound | activity change, negative = inhibition | Potency
COc1ccc(CCNC(=O)CSCc2nc(-c3ccc(OC)c(OC)c3)oc2C)cc1OC | inactive: 21% | –
COc1ccc(-n2ncc3c2ncn2nc(-c4ccc(Cl)cc4Cl)nc32)cc1 | inactive: 42.1% | –
Cc1ccc(C2C(/C=C3/SC(=S)NC3=O)=C(c3cccs3)Oc3ccccc32)cc1 (stereo not given) | – | inconclusive: 20 µM [inhibitor, partial curve, poor fit]
O=C(O)c1ccc(N/N=C/C2=C(N3CCOCC3)C(=C\c3ccccc3)/CC2)cc1 | – | inconclusive: 50.1 µM [inhibitor, partial curve]
Oc1ccc2ccccc2c1CNc1ccc2ccccc2c1 | – | inconclusive: 39.8 µM [inhibitor, partial curve]
Cc1ccc2c(c1C)-c1c(ccc(C)c1C)C(=O)C2=O | – | active: 15.8 µM
Cc1nc2cc(NC(=O)N3CCCC3)ccc2n1C | inactive: 38% | –
COc1ccc(O)c(CN2CCC(n3nccc3NC(=O)CCOc3ccccc3)CC2)c1 | inactive: 10.5% | –
O=C(c1ccc(F)cc1)N1CCN(C2CCCCC2)CC1 | – | inconclusive: 31.6 µM [inhibitor, single point]
CCc1cc(OCCN(C)C)ccc1Cl | – | inconclusive: 28.2 µM [inhibitor, full curve]
O=C(NC(=S)Nc1nc2c(ccc3ccccc32)s1)c1cccs1 | – | inconclusive: 7.94 µM [inhibitor, full curve]
CN1CCN(CCC(=O)N/N=C/c2ccccn2)CC1 | inactive: 7% | –
CCN(c1ccccc1)S(=O)(=O)c1cc(NC(=O)CN2CCN(C)CC2)ccc1Cl | – | inconclusive: 28.2 µM [inhibitor, single point]
CCNc1ccc(Br)cc(C(=O)/C=C/c2c(Cl)cccc2Cl)c1=O | – | inconclusive: 6.31 µM [inhibitor, full curve, poor fit]
Cc1onc(-c2c(Cl)cccc2Cl)c1C(=O)N[C@@H]1C(=O)N2[C@@H]1SC(C)(C)[C@@H]2C(=O)O | – | inconclusive: 3.55 µM [inhibitor, partial curve, poor fit]
COc1ccc(C(=S)N2CCN(c3cccc(Cl)c3)CC2)c(OC)c1 | – | inconclusive: 11.2 µM [inhibitor, full curve]
COc1ccc(S(=O)(=O)NC2CC(=O)N(c3ccccc3)C2)cc1C (stereo not given) | inactive: 30.8% | –
CCOc1ccc(-c2csc(/C(C#N)=C\c3ccc(O)c([N+](=O)[O-])c3)n2)cc1 | – | active: 35.5 µM
Cc1ccccc1NC1=C/C(=N\S(=O)(=O)c2cccs2)c2ccccc2C1=O | – | inconclusive: 3.98 µM [inhibitor, full curve, poor fit]
CCn1c2ccccc2c2cc(NC(=O)CNCc3ccccc3OC)ccc21 | – | inconclusive: 39.8 µM [inhibitor, partial curve]

— PubChem BioAssay AID540317 (National Center for Advancing Translational Sciences (NCATS), 2011)
